# From article PMC4336329 (PLoS ONE, 2015)
# About 14,000 (4.5%) of roughly 310,000 compounds showed an effect of 50% or more. The effect is printed as a negative number. The list shows a part of the results.
# Target: human ether-à-go-go-related gene (hERG) potassium channel (human, UniProt Q12809)
# Experiment: primary screen, population patch clamp on CHO cells stably expressing hERG
# 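Also: peak tail current of the secondary pulse compared with the same well before compound.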
# Chain of human ether-à-go-go-related gene (hERG) potassium channel (Q12809 whole entry, looked up): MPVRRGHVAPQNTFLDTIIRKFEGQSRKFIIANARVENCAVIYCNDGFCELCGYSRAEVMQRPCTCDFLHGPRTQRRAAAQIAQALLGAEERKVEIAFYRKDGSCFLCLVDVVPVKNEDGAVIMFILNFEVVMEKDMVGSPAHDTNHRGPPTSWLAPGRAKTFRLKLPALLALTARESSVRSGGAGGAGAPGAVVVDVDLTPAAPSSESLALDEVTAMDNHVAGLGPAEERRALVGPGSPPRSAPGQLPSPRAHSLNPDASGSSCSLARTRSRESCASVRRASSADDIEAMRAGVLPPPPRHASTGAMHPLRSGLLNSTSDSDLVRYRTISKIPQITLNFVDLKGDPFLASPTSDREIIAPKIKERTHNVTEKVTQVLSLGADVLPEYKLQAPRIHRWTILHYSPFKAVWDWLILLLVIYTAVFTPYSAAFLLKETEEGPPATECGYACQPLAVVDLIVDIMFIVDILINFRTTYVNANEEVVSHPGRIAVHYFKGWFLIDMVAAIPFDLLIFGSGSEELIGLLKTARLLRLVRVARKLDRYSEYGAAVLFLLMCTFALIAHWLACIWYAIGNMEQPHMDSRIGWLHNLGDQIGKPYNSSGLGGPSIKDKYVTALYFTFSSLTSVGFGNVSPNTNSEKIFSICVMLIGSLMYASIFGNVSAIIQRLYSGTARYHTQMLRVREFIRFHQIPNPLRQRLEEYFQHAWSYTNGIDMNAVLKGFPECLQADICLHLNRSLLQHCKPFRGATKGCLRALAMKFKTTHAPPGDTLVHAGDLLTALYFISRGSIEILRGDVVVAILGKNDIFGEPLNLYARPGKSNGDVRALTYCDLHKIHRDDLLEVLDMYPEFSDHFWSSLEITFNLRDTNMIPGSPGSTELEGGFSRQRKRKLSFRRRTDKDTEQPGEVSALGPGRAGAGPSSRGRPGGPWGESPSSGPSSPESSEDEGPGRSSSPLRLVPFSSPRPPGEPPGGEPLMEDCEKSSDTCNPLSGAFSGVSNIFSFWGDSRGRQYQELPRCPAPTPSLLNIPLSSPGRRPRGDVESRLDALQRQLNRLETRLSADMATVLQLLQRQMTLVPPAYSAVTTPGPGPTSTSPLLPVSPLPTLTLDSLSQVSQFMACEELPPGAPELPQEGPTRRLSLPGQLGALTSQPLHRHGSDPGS
row,SMILES,"hERG current change (%, negative = inhibition) at 10uM"
1,COC(=O)c1cc(C(=O)OCC(=O)NC(=O)c2ccccc2)cc([N+](=O)[O-])c1,11.9%
2,CC(C)(C)c1cc(NC(=O)NN2CCOCC2)nn1-c1c(Cl)cc(Cl)cc1Cl,13%
3,Cc1ccc(Cn2nnnc2CN2CCC(n3nnc4cc(C(F)(F)F)ccc43)CC2)cc1,2.84%
4,Cc1ccc(S(=O)(=O)NNC(=O)C2COc3ccccc3O2)cc1 (stereo not shown),5.24%
5,COC(=O)C1=C(c2ccc(S(C)(=O)=O)cc2)C[C@@H]2CC[C@H]1N2C(=O)N1CCC(O)CC1,7.91%
6,O=C(Nc1nc2ccccc2n1CCN1CCOCC1)c1ccc(COc2ccccc2Br)o1,-32.4%
7,CCCN1CCC(=NNc2ccc(C(=O)O)cc2)CC1.O=S(=O)(O)O,8.14%
8,COc1ccc(OCC(=O)N/N=C(\C)CC(=O)Nc2ccc(NC(C)=O)cc2)cc1,16.3%
9,COC(=O)c1ccc(NC(=O)c2ccccc2N(C)S(=O)(=O)c2ccccc2)cc1,16.3%
10,COC(=O)c1c(NC(=O)C2CC=CCC2C(=O)O)sc(C(N)=O)c1C (stereo not shown),-18%
11,COc1ccc(/C=C/c2ccncc2)cc1,-1.97%
12,CC(=O)OC(C(=O)NC1CCCCC1)c1ccc(C#N)cc1 (stereo not shown),-13.4%
13,Cc1cc(C)cc(N(C(=O)c2cccs2)C2C=CS(=O)(=O)C2)c1 (stereo not shown),-2.35%
14,C(=N\N1CCN(C2c3ccccc3-c3ccccc32)CC1)/c1ccccn1,10.8%
15,C/C=C/c1ccc(OCCOCCNCc2ccccc2)c(OC)c1.O=C(O)C(=O)O,-37%
16,COc1ccc(-n2nc(C(=O)NCC(=O)N3CCCCCC3)c3ccccc3c2=O)cc1OC,-9.42%
17,O=C(Nc1ccccc1)c1sccc1Oc1ccc([N+](=O)[O-])cc1F,-47.3%
18,CCOC(=O)c1ccc(NC(=O)C2(c3ccc(OC)cc3)CCCC2)cc1,4.25%
19,Cc1csc(NC(C)c2nc3cc(Cl)c(Cl)cc3n2CCCO)n1 (stereo not shown),-11.7%
20,CCNC(=S)N/N=C(\C)c1cccc(OC)c1,-14.9%
21,Cc1ccc(C)c(C(=O)N2CCN(c3ncccn3)CC2)c1,5.25%
22,COc1ccccc1N1CCN(c2nnc(-c3ccc(F)cc3)c3ccccc23)CC1,10.2%

row,SMILES,"hERG current change (%, negative = inhibition) at 10uM"
1,Cc1sc2ncnc(N3CCCC(C)C3)c2c1C.Cl (stereo not shown),0.33%
2,FC(F)(F)c1cccc(Cc2noc(CN3CCCCC3c3ccccn3)n2)c1 (stereo not shown),-8.11%
3,O=C1C(=Cc2cccs2)C(=O)c2ccccc21,12.7%
4,COc1ccc(Cl)cc1C(=O)O/N=C(\N)c1ccccn1,2.9%
5,COc1ccccc1C(=O)N1CCN(c2cccc(Cl)c2)CC1,0.406%
6,NC(=O)C1CCN(C(=O)OCc2ccccc2)CC1,18.8%
7,CCOc1ccc(-n2c(=S)sc3c(=O)[nH]c(SCC(=O)C(C)(C)C)nc32)cc1,40%
8,O=C(Nc1ccc(S(=O)(=O)NC2=NCCCCC2)cc1)c1ccc([N+](=O)[O-])s1,-46%
9,Cc1ccc(NC(=O)CSc2nnc(C3CC3)n2N)cc1S(=O)(=O)N1CCOCC1,-1.56%
10,CSc1ncccc1C(=O)NCCc1ccccc1,7.94%
11,O=C(C[n+]1cccc(CNC(=O)c2ccc(OC(F)F)cc2)c1)c1ccccc1.[Cl-],-14.7%
12,CCCC(C)c1nnc(NC(=O)C2CC(=O)N(c3ccc(OCC)cc3)C2)s1 (stereo not shown),-20.1%
13,Cc1ccc(C)c(NC(=O)c2cc(-c3cc(C)cc(C)c3O)n[nH]2)c1,26.1%
14,CCN(C(=O)CN1C(=O)/C(=C/c2ccccc2)SC1=S)C1CCS(=O)(=O)C1 (stereo not shown),20.8%
15,CC(=O)c1cccc(NC(=O)Nc2ccc(C(=O)N3CCOCC3)cc2)c1,-0.351%
16,O=C(O)CCNC(=O)/C(=C\c1ccco1)NC(=O)c1ccco1,10.7%
17,Cl.c1ccc2c(c1)oc1c(NCCCn3ccnc3)ncnc12,-58.7%
18,CCOC(=O)N1CCC(N(CCN(C)C)C(=S)Nc2ccccc2Cl)CC1,8.75%
19,Cn1c(SCC(=O)NCCc2ccccc2)nnc1C1CCCCC1,21%
20,CN[C@@H](C)[C@@H](O)c1ccccc1.Cl,6.56%
21,O=C(NC(=S)Nc1sc2c(c1C(=O)O)CCCC2)c1ccccc1,3.77%
22,COC(=O)C(O)(CC(=O)Nc1ccc(OC)cc1)C(F)(F)F (stereo not shown),3.12%

row,SMILES,"hERG current change (%, negative = inhibition) at 10uM"
1,COc1cc(-c2noc(C)c2C(=O)NCCO)cc(OC)c1OC,7.69%
2,Cc1c(C(=O)NCCc2ccc(S(N)(=O)=O)cc2)cccc1[N+](=O)[O-],11.6%
3,CC(=O)Nc1cccc(-n2nnc(SCC(=O)N(C)c3ccccc3)n2)c1,5.28%
4,Cc1cc(Cl)ccc1C(=O)C1CCCN(C(=O)CCn2cnnn2)C1 (stereo not shown),-5.17%
5,N#CC1(NC(=O)CN2C(=O)c3ccc([N+](=O)[O-])cc3C2=O)CCCCC1,4.83%
6,CN(C)S(=O)(=O)c1cccc(NC(=O)CCSc2ccc(Cl)cc2)c1,-6.16%
7,COc1ccc(C(=O)NC(C)(C)C)cc1S(=O)(=O)N1CCCC1,-1.11%
8,O=C(c1ccc(C(F)(F)F)cc1)C1CCCN(C(=O)c2cnccn2)C1 (stereo not shown),-16.5%
9,CC(NC(=O)c1ccnn1C)C1CCCO1 (stereo not shown),16%
10,COc1ccc(/C=N/n2c(C)nc3ccccc3c2=O)cc1OC,7.01%
11,CCC(C)(C)n1nnnc1C(c1ccc(OC)c(OC)c1)N1CCN(C(=O)c2ccco2)CC1.Cl (stereo not shown),-27.9%
12,C/C(=N/NC(=O)CCc1ccccc1)c1ccco1,9.7%
13,Cc1ccc(OCCNC(=O)c2cccc(S(=O)(=O)N3CCN(C)CC3)c2)cc1,-16.6%
14,O=c1c2ccccc2[nH]c(=S)n1Cc1ccccc1Cl,21%
15,CCOc1ccc(-c2nc(S(=O)(=O)c3ccccc3)c(N3CCOCC3)o2)cc1,-30.1%
16,O=C(Nc1ccc2c(c1)CCC2)C1CCCO1 (stereo not shown),2.89%
17,CO/N=C/c1cccn1-c1nccc(N(C)C)c1C#N,-2.01%
18,O=C(CN1CCN(c2nc(-c3ccccc3)cs2)CC1)NNC(=O)c1ccc(Br)cc1,0.759%
19,CC(C)(C)Nc1nc(NC(C)(C)C)nc(-n2ccnc2)n1,-0.0313%
20,CCO[C@H]1OC(C(=O)N2CCN(C)CC2)=C[C@@H](c2coc3ccccc3c2=O)[C@@H]1CCCO,8.9%
21,CCOC(=O)c1c(-c2ccccc2)oc2ccc(OC(=O)N(C)C)cc12,-6.14%
22,C=CCN(CC=C)C(=O)c1cccc(OC2CCN(CC(C)(C)C)CC2)c1,2.48%

row,SMILES,"hERG current change (%, negative = inhibition) at 10uM"
1,O=C(NC(c1ccc(Cl)cc1)c1cc(Cl)c2cccnc2c1O)c1cccnc1 (stereo not shown),-15.3%
2,Cc1csc2nc3ccccc3c(=O)n12,6.97%
3,Oc1cccc(NC(=S)Nc2ccccc2)c1,17.8%
4,CC(C)n1c(=S)[nH]c2scc(-c3cccs3)c2c1=O,17.1%
5,O=[N+]([O-])c1ccccc1NCCNS(=O)(=O)c1ccc(Cl)cc1,4.23%
6,COc1cc(/C=C2\SC(=O)NC2=O)ccc1Oc1cnccn1,2.14%
7,COc1cccc2cc(NC(=O)C3CCCCC3)c(=O)oc12,11.6%
8,CCOC(=O)C1=C(C)NC(=O)C(C(N)=O)C1c1ccccc1 (stereo not shown),5.2%
9,Cc1ccc(N2C(=O)[C@@H]3[C@H](C2=O)C2CCCN2[C@@H]3C(=O)c2ccccc2)cc1 (stereo partly shown),4.45%
10,COc1cccc(Oc2nc(-c3ccncc3)nc3ccccc23)c1,16.6%
11,CCCOc1ccc(C(F)(F)F)cc1NC(=O)CN1C(=O)C(=O)N(CC)C1=O,3.86%
12,CN1C(=O)N(C)C2(CC1(C)C)CC(C)(C)N(C)C(=O)N2C,5.38%
13,CC(=O)c1cccc(NC(=O)CCN2C(=O)C3CC=CCC3C2=O)c1 (stereo not shown),5.49%
14,O=C(Cn1c(=O)c2sccc2n(Cc2ccc([N+](=O)[O-])cc2)c1=O)NCCc1ccccc1,-49%
15,CCC(=O)Nc1ccc(C(=O)CSc2nnc(-c3ccc(O)cc3)n2CC2CCCO2)cc1 (stereo not shown),22.8%
16,COc1ccc(-c2cc(C(=O)O)[nH]n2)cc1OC,6.47%
17,C/C(=N\NC(=O)c1ccco1)c1cccc2ccccc12,-13.6%
18,CN1Cc2c(N3CCOCC3)nc3sc(C#N)c(N)c3c2CC1(C)C,-8.57%
19,CN(C)S(=O)(=O)c1cccc(NC(=O)c2n[nH]c(=O)c3ccccc23)c1,10.5%
20,O=C(ON=C1CCN(S(=O)(=O)c2ccccc2)CC1)c1ccc(F)cc1,-13.3%
21,CS(=O)(=O)c1ccc(Cl)c(NC(=O)Cc2ccsc2)c1,11.7%
22,COc1ccc(N2C(N)=NC(N)=NC23CCCC3)cc1.Cl,0.958%
